# About 100 (0.036%) of roughly 280,000 compounds were called active. The shares of active, inactive and inconclusive entries below differ from those in the screen. Calls come from the whole dose curve; as a rule, active = well fitted inhibition curve with a large enough effect in the signal ratio, with a control signal flat (not every such curve was filed as active); inconclusive = small, poorly fitted or top-dose-only effect, or effect the other way, or a change in a side signal; inactive = no such curve, though single readings can be large or run the other way; the % refers to the signal ratio. Potencies of inconclusive entries are doubtful fits and often do not repeat. A note “side channel” means that the fit belongs to a control or component signal, not to the main read-out.
# Biological target: Muscleblind-like protein 1 (Homo sapiens) (UniProt Q9NR56)
# Experiment: qHTS Assay for Inhibitors of MBNL1-poly(CUG) RNA binding
# Conditions: TR-FRET MBNL1-His/biotin-(CUG)12 binding, 665/545 ratio; activity change, negative = inhibition: at 57.5 µM (top of the series)
# Outline: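 TR-FRET between His-tagged MBNL1 and biotin-(CUG)12 RNA, detected with Tb anti-His antibody (0.055 ng/ul) and streptavidin-XL665 (5 nM), 60 min at room temperature. Compounds titrated 92 nM to 58 uM; 665/545 nm ratio normalized to buffer and complex controls.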
# % is set by controls: 0 for no effect and ±100 for the full control effect; potency is the fitted concentration of half-maximal effect; tags give direction and shape of the fitted curve or compound fluorescence and quenching.
# UniProt Q9NR56, sequence (Q9NR56 whole entry, looked up): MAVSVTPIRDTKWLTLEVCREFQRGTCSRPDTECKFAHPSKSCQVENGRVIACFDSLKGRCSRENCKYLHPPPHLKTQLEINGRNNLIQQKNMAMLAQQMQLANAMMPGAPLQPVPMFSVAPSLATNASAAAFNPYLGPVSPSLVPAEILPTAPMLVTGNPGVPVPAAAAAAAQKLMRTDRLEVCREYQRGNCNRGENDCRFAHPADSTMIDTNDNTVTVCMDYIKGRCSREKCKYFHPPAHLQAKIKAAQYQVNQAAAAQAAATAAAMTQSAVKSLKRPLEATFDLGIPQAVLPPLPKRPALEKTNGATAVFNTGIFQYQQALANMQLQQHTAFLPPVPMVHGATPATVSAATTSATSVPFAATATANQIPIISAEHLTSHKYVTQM
Compound,"activity change, negative = inhibition",Potency
O=C(Nc1ccc(Cl)cc1)/C(=C/c1ccc([N+](=O)[O-])cc1)c1nc2ccccc2s1,inactive: 24.5%,–
Nc1ccc2oc3ccc(N)cc3c(=O)c2c1,–,"inconclusive: 15.8 µM [quencher, partial curve]"
Cc1ccc(-n2nc3c(c2NC(=O)C2CCCC2)CS(=O)(=O)C3)cc1,–,"inconclusive: 7.08 µM [fluorescent, side channel, single point]"
O=c1c2ccccc2nc2c3ccccc3c(NCCN3CCOCC3)nn12,–,"inconclusive: 14.1 µM [quencher, side channel, partial curve]"
CCC(c1nnnn1Cc1ccco1)N(CCc1ccccc1)Cc1cc2cc(C)ccc2[nH]c1=O (stereo not drawn),–,"inconclusive: 31.6 µM [quencher, side channel, single point]"
O=C1c2oc3ccccc3c(=O)c2C(c2cccc(F)c2)N1CCCO (stereo not drawn),–,"inconclusive: 39.8 µM [quencher, single point]"
Cc1ccc(C(=O)/C=C/c2cn(CN3CCN(C)CC3)c3ccccc23)cc1,–,"inconclusive: 35.5 µM [quencher, side channel, single point]"
COc1ccc(CCNC(=O)NC2CCCCC2)cc1,–,"inconclusive: 100 µM [inhibitor, single point]"
COc1cc(/C=C2\C(=N)N3N=C(S(C)(=O)=O)SC3=NC2=O)cc(OC)c1OCCOc1ccccc1C,inactive: 2.76%,–
COC(=O)/C=c1/sc2n(c1=O)CCN=2,–,"inconclusive: 25.1 µM [quencher, side channel, single point]"
CCC(C)(C)NC(=O)C(c1cccn1C)N(C(=O)Cn1nnc2ccccc21)c1ccc(OC)cc1OC (stereo not drawn),inconclusive: -7.37% [phenotype inactive],–
CCCCOc1ccc(/C=C/C(=O)Nc2ccc(C(N)=O)cc2)cc1,inactive: -5.56%,–
COc1cccc(-c2ccc(=O)n(CC(=O)Nc3cc4c(cc3NC(C)=O)OCCO4)n2)c1,inactive: 15.4%,–
COc1cc(C(=O)Nc2nnc(C(C)(C)C)s2)c([N+](=O)[O-])cc1OC,–,"inconclusive: 20 µM [quencher, side channel, single point]"
Fc1ccc(CSc2nnc(-c3cnccn3)n2Cc2ccco2)cc1,–,"inconclusive: 14.1 µM [quencher, side channel, partial curve]"
Cc1nn(C)c(C(=O)N/N=C/c2ccc(C(F)(F)F)cc2)c1[N+](=O)[O-],–,"inconclusive: 39.8 µM [quencher, single point]"
Cc1ccc(CNC(=O)C2CCC(=O)N(CCc3cccc(F)c3)C2)cc1 (stereo not drawn),inactive: 0.533%,–
CC(Nc1cccc2ccccc12)C(=O)N/N=C/c1ccc([N+](=O)[O-])cc1 (stereo not drawn),inactive: 52.2%,–

# — PubChem BioAssay AID2675 (National Center for Advancing Translational Sciences (NCATS), 2010)
